Source: US20140005245A1, “INSECTICIDAL COMPOUNDS” (SYNGENTA PARTICIPATIONS AG, priority 2011, published 2014)
Some of these results come from one statement about several compounds together.

Legend:
Assay type in all cases: in vivo
Heliothis virescens = Heliothis virescens (tobacco budworm) egg/artificial diet test; conditions: application rate 200 ppm (concentration in well 18 pm), eggs 0 to 24 h old on artificial diet; egg mortality, larval mortality, growth regulation after 4 days
Plutella xylostella = Plutella xylostella (diamond back moth) artificial diet test; conditions: application rate 200 ppm (concentration in well 18 ppm), L2 larvae, larval mortality, growth regulation after 6 days
Diabrotica balteata = Diabrotica balteata (corn root worm) artificial diet test; conditions: application rate 200 ppm (concentration in well 18 ppm), L2 larvae, larval mortality, growth regulation after 5 days
Tetranychus urticae = Tetranychus urticae (two-spotted spider mite) bean leaf disc spray test; conditions: application rate 200 ppm, bean leaf discs sprayed, mite populations of mixed ages; egg, larval and adult mortality 8 days later
Thrips tabaci = Thrips tabaci (onion thrips) sunflower leaf disc spray test; conditions: application rate 200 ppm, sunflower leaf discs sprayed, population of mixed ages; mortality after 7 days
Spodoptera littoralis = Spodoptera littoralis (Egyptian cotton leafworm) leaf disc spray test; conditions: application rate 200 ppm, cotton leaf discs sprayed, 5 μl larvae; mortality, feeding behaviour, growth regulation 3 days after treatment

CSCCNC(=O)c1cc(-c2cn(-c3c(C(F)(F)F)c(C(F)(F)C(F)(F)F)nn3C)nn2)ccc1Cl [Compound A27]
at least 80%: control of Heliothis virescens (Heliothis virescens) | control of Plutella xylostella (Plutella xylostella) | control of Diabrotica balteata (Diabrotica balteata) | control of Tetranychus urticae (Tetranychus urticae) | control of Thrips tabaci (Thrips tabaci)

Cn1nc(C(F)(F)C(F)(F)F)c(C(F)(F)F)c1-n1cc(-c2cccc(C(=O)Nc3ccncc3)c2F)nn1 [Compound A144]
at least 80%: control of Spodoptera littoralis (Spodoptera littoralis) | control of Heliothis virescens (Heliothis virescens) | control of Diabrotica balteata (Diabrotica balteata) | control of Tetranychus urticae (Tetranychus urticae) | control of Thrips tabaci (Thrips tabaci)

CCN(Cc1ccccc1)C(=O)c1cccc(-c2cn(-c3c(C(F)(F)F)c(C(F)(F)C(F)(F)F)nn3C)nn2)c1F [Compound A143]
at least 80%: control of Spodoptera littoralis (Spodoptera littoralis) | control of Heliothis virescens (Heliothis virescens) | control of Plutella xylostella (Plutella xylostella) | control of Diabrotica balteata (Diabrotica balteata) | control of Thrips tabaci (Thrips tabaci)

CC(C)NC(=O)c1cc(-c2cn(-c3c(C(F)(F)F)c(C(F)(F)C(F)(F)F)nn3C)nn2)ccc1Cl [Compound A139]
at least 80%: control of Spodoptera littoralis (Spodoptera littoralis) | control of Heliothis virescens (Heliothis virescens) | control of Plutella xylostella (Plutella xylostella) | control of Diabrotica balteata (Diabrotica balteata) | control of Tetranychus urticae (Tetranychus urticae) | control of Thrips tabaci (Thrips tabaci)

Cc1cc(NC(=O)c2cc(-c3cn(-c4c(C(F)(F)F)c(C(F)(F)C(F)(F)F)nn4C)nn3)ccc2Cl)n(C)n1 [Compound A18]
at least 80%: control of Spodoptera littoralis (Spodoptera littoralis) | control of Plutella xylostella (Plutella xylostella) | control of Tetranychus urticae (Tetranychus urticae)

Cn1nc(C(F)(F)C(F)(F)F)c(C(F)(F)F)c1-n1cc(-c2ccc(Cl)c(C(=O)NC3CC3(F)F)c2)nn1 (stereo not drawn) [Compound A107]
at least 80%: control of Spodoptera littoralis (Spodoptera littoralis) | control of Heliothis virescens (Heliothis virescens) | control of Plutella xylostella (Plutella xylostella) | control of Diabrotica balteata (Diabrotica balteata) | control of Tetranychus urticae (Tetranychus urticae) | control of Thrips tabaci (Thrips tabaci)

Cn1nc(C(F)(F)C(F)(F)F)c(C(F)(F)F)c1-n1cc(-c2ccc(Cl)c(C(=O)NCC(F)F)c2)nn1 [Compound A40]
at least 80%: control of Spodoptera littoralis (Spodoptera littoralis) | control of Heliothis virescens (Heliothis virescens) | control of Plutella xylostella (Plutella xylostella) | control of Diabrotica balteata (Diabrotica balteata) | control of Thrips tabaci (Thrips tabaci)

CNC(=O)c1cc(-c2cn(-c3c(C(F)(F)F)c(C(F)(F)C(F)(F)F)nn3C)nn2)ccc1Cl [Compound A140]
at least 80%: control of Spodoptera littoralis (Spodoptera littoralis) | control of Heliothis virescens (Heliothis virescens) | control of Plutella xylostella (Plutella xylostella) | control of Diabrotica balteata (Diabrotica balteata) | control of Tetranychus urticae (Tetranychus urticae) | control of Thrips tabaci (Thrips tabaci)

Cn1nc(C(F)(F)C(F)(F)F)c(C(F)(F)F)c1-n1cc(-c2ccc(Cl)c(C(=O)NCC(F)(F)F)c2)nn1 [Compound A3]
at least 80%: control of Spodoptera littoralis (Spodoptera littoralis) | control of Heliothis virescens (Heliothis virescens) | control of Plutella xylostella (Plutella xylostella) | control of Diabrotica balteata (Diabrotica balteata) | control of Tetranychus urticae (Tetranychus urticae) | control of Thrips tabaci (Thrips tabaci)

Cn1nc(C(F)(F)C(F)(F)F)c(C(F)(F)F)c1-n1cc(-c2ccc(Cl)c(C(=O)N(Cc3ccccc3)C3CC3)c2)nn1 [Compound A108]
at least 80%: control of Spodoptera littoralis (Spodoptera littoralis) | control of Heliothis virescens (Heliothis virescens) | control of Plutella xylostella (Plutella xylostella) | control of Diabrotica balteata (Diabrotica balteata) | control of Tetranychus urticae (Tetranychus urticae)

Cc1csc(NC(=O)c2cc(-c3cn(-c4c(C(F)(F)F)c(C(F)(F)C(F)(F)F)nn4C)nn3)ccc2Cl)n1 [Compound A19]
at least 80%: control of Spodoptera littoralis (Spodoptera littoralis) | control of Heliothis virescens (Heliothis virescens) | control of Plutella xylostella (Plutella xylostella)

Cn1nc(C(F)(F)C(F)(F)F)c(C(F)(F)F)c1-n1cc(-c2cccc(C(=O)NC3(C#N)CC3)c2F)nn1 [Compound A145]
at least 80%: control of Spodoptera littoralis (Spodoptera littoralis) | control of Heliothis virescens (Heliothis virescens) | control of Plutella xylostella (Plutella xylostella) | control of Diabrotica balteata (Diabrotica balteata) | control of Tetranychus urticae (Tetranychus urticae)

Cn1nc(C(F)(F)C(F)(F)F)c(C(F)(F)F)c1-n1cc(-c2ccc(Cl)c(C(=O)Nc3cccc(F)c3)c2)nn1 [Compound A17]
at least 80%: control of Spodoptera littoralis (Spodoptera littoralis) | control of Heliothis virescens (Heliothis virescens) | control of Plutella xylostella (Plutella xylostella) | control of Diabrotica balteata (Diabrotica balteata) | control of Tetranychus urticae (Tetranychus urticae)

Cn1nc(C(F)(F)C(F)(F)F)c(C(F)(F)F)c1-n1cc(-c2cccc(C(=O)NC3CCC3)c2)nn1 [Compound A131]
at least 80%: control of Spodoptera littoralis (Spodoptera littoralis) | control of Heliothis virescens (Heliothis virescens) | control of Plutella xylostella (Plutella xylostella)

Cn1nc(C(F)(F)C(F)(F)F)c(C(F)(F)F)c1-n1cc(-c2ccc(Cl)c(C(=O)Nc3oc(-c4ccccc4)cc3C#N)c2)nn1 [Compound A97]
at least 80%: control of Spodoptera littoralis (Spodoptera littoralis) | control of Plutella xylostella (Plutella xylostella) | control of Diabrotica balteata (Diabrotica balteata)

Cn1nc(C(F)(F)C(F)(F)F)c(C(F)(F)F)c1-n1cc(-c2cccc(C(=O)NCCC(F)(F)F)c2)nn1 [Compound A115]
at least 80%: control of Spodoptera littoralis (Spodoptera littoralis) | control of Heliothis virescens (Heliothis virescens) | control of Plutella xylostella (Plutella xylostella) | control of Diabrotica balteata (Diabrotica balteata) | control of Tetranychus urticae (Tetranychus urticae) | control of Thrips tabaci (Thrips tabaci)

Cn1nc(C(F)(F)C(F)(F)F)c(C(F)(F)F)c1-n1cc(-c2ccc(Cl)c(C(=O)NCCC(F)(F)F)c2)nn1 [Compound A8]
at least 80%: control of Spodoptera littoralis (Spodoptera littoralis) | control of Heliothis virescens (Heliothis virescens) | control of Plutella xylostella (Plutella xylostella) | control of Diabrotica balteata (Diabrotica balteata) | control of Tetranychus urticae (Tetranychus urticae) | control of Thrips tabaci (Thrips tabaci)

Cn1nc(C(F)(F)C(F)(F)F)c(C(F)(F)F)c1-n1cc(-c2cccc(C(=O)NC3CC3)c2F)nn1 [Compound A142]
at least 80%: control of Spodoptera littoralis (Spodoptera littoralis) | control of Heliothis virescens (Heliothis virescens) | control of Plutella xylostella (Plutella xylostella) | control of Diabrotica balteata (Diabrotica balteata) | control of Tetranychus urticae (Tetranychus urticae)

Cn1nc(C(F)(F)C(F)(F)F)c(C(F)(F)F)c1-n1cc(-c2cccc(C(=O)NC3CC3)c2)nn1 [Compound A135]
at least 80%: control of Spodoptera littoralis (Spodoptera littoralis) | control of Heliothis virescens (Heliothis virescens) | control of Plutella xylostella (Plutella xylostella) | control of Diabrotica balteata (Diabrotica balteata) | control of Thrips tabaci (Thrips tabaci)

Cn1nc(C(F)(F)C(F)(F)F)c(C(F)(F)F)c1-n1cc(-c2ccc(Cl)c(C(=O)NC3CC3c3ccccc3)c2)nn1 (stereo not drawn) [Compound A105]
at least 80%: control of Spodoptera littoralis (Spodoptera littoralis) | control of Heliothis virescens (Heliothis virescens) | control of Plutella xylostella (Plutella xylostella) | control of Diabrotica balteata (Diabrotica balteata) | control of Tetranychus urticae (Tetranychus urticae)

CCCCNC(=O)c1cc(-c2cn(-c3c(C(F)(F)F)c(C(F)(F)C(F)(F)F)nn3C)nn2)ccc1Cl [Compound A5]
at least 80%: control of Spodoptera littoralis (Spodoptera littoralis) | control of Heliothis virescens (Heliothis virescens) | control of Plutella xylostella (Plutella xylostella) | control of Tetranychus urticae (Tetranychus urticae) | control of Thrips tabaci (Thrips tabaci)

Cn1nc(C(F)(F)C(F)(F)F)c(C(F)(F)F)c1-n1cc(-c2ccc(Cl)c(C(=O)NC3CS(=O)(=O)C3)c2)nn1 [Compound A15]
at least 80%: control of Heliothis virescens (Heliothis virescens) | control of Plutella xylostella (Plutella xylostella) | control of Diabrotica balteata (Diabrotica balteata) | control of Tetranychus urticae (Tetranychus urticae) | control of Thrips tabaci (Thrips tabaci)

Cn1nc(C(F)(F)C(F)(F)F)c(C(F)(F)F)c1-n1cc(-c2ccc(Cl)c(C(=O)NCc3ccccc3)c2)nn1 [Compound A11]
at least 80%: control of Heliothis virescens (Heliothis virescens) | control of Plutella xylostella (Plutella xylostella) | control of Diabrotica balteata (Diabrotica balteata) | control of Tetranychus urticae (Tetranychus urticae) | control of Thrips tabaci (Thrips tabaci)

CCN(C(=O)c1cccc(-c2cn(-c3c(C(F)(F)F)c(C(F)(F)C(F)(F)F)nn3C)nn2)c1F)c1ccncc1 [Compound A150]
at least 80%: control of Spodoptera littoralis (Spodoptera littoralis) | control of Heliothis virescens (Heliothis virescens) | control of Plutella xylostella (Plutella xylostella) | control of Diabrotica balteata (Diabrotica balteata) | control of Thrips tabaci (Thrips tabaci)

Cn1nc(C(F)(F)C(F)(F)F)c(C(F)(F)F)c1-n1cc(-c2cccc(C(=O)NC3(C#N)CC3)c2)nn1 [Compound A136]
at least 80%: control of Spodoptera littoralis (Spodoptera littoralis) | control of Heliothis virescens (Heliothis virescens) | control of Plutella xylostella (Plutella xylostella) | control of Tetranychus urticae (Tetranychus urticae) | control of Thrips tabaci (Thrips tabaci)

Cn1nc(C(F)(F)C(F)(F)F)c(C(F)(F)F)c1-n1cc(-c2ccc(Cl)c(C(=O)Nc3ccc4ncsc4c3)c2)nn1 [Compound A78]
at least 80%: control of Spodoptera littoralis (Spodoptera littoralis) | control of Plutella xylostella (Plutella xylostella) | control of Diabrotica balteata (Diabrotica balteata) | control of Tetranychus urticae (Tetranychus urticae)

Cn1nc(C(F)(F)C(F)(F)F)c(C(F)(F)F)c1-n1cc(-c2cccc(C(=O)NCc3ccc(Cl)nc3)c2)nn1 [Compound A123]
at least 80%: control of Spodoptera littoralis (Spodoptera littoralis) | control of Plutella xylostella (Plutella xylostella)
